For 22 molecules, binding signal results are on record in article PMC12136788.

T1: UNK ZnF1-3 (human, UniProt Q9C0B0 31-174)
T1 sequence: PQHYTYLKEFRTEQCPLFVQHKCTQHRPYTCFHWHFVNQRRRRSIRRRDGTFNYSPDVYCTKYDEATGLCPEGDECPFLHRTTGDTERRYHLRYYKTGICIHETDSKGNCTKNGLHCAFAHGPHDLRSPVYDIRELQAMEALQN

B1: chr11:87793471:87793472:-_ENSMUSG00000020483_ENSMUST00000020775|mus_mus|mus_mus_mus_hu_False|8_38 (ssRNA)
RNA: GGGAGUUCUACAGUCCGACGAUCUGGACUUGAAAAUAAAAGAAUAAGCUGGAUCCCCCACCCCCCCACAUUGUCAACCCUACACGAGAGUUUUGAAUGAUUCAUAAGAAAAUCAGCAGCUCAAACGAAUGACAACCCCCCACCCAACAGAGGAUUGAGCAUCA
B2: chr4:140556289:140556290:+_ENSMUSG00000036622_ENSMUST00000037055|mus_mus|mus_mus_mus_hu_False|18_38 (ssRNA)
RNA: GGGAGUUCUACAGUCCGACGAUCGAUGGAGCUCACCAGGCCCCCUUUUGCCGUGCAGAACCCUGUGCGGGUCACCACUGCCAGGACGUGCGGUCCCACGUAGGCUCGGGCCUGCAAAAUGAGGGUGCCGCAGAAGAGUGUGUGCAACAGAGGAUUGAGCAUCA
B3: 3626104_3629994_3074_CDS_ENSMUSG00000005907_ENSMUST00000121291|mouse|control|control (ssRNA)
RNA: GGGAGUUCUACAGUCCGACGAUCAAUGCAGGGCUUUGCAGCCUGUGCUCUGAUGAAAACAUCUCGAACAGCUUGCUCACUUGCGCCAAUAUAUUUGCUGAGUAACUCUGGUCCCUUAAUACUAAUAAAAUUCAUUCCACUCUCCAACAGAGGAUUGAGCAUCA
B4: chr7:141441981:141441982:+_ENSG00000106028_ENST00000265304|hu_mus|hu_hu_hu_mus_False|18_48 (ssRNA)
RNA: GGGAGUUCUACAGUCCGACGAUCCUCAUGUCUUACAAACUGACGAAAUACCUGUAACACAGGUCUUCGAAACAUGGCUUCUGUUUUCUUUUCUUACUAAUCUUUAGGCUUUUCCUACCUGACGAUCAGAAAAGAGAAAAAUGACAACAGAGGAUUGAGCAUCA
B5: chr7:141445308:141445309:+_ENSG00000106028_ENST00000265304|hu_hu|hu_hu_hu_mus_False|48_58 (ssRNA)
RNA: GGGAGUUCUACAGUCCGACGAUCUAUGAUUGUUGUUGCUUGCCGCCUCACAUUGUUUUUAUCCAUGUACUCGCCAUAGUCUAUUUUCCCUUCCAAAAAUAUACGAGCCCCCUUUUUCACAUACUGAUAUGCCACAUCUCUGAGCAACAGAGGAUUGAGCAUCA
B6: chr15:98781125:98781126:-_ENSMUSG00000072235_ENSMUST00000097014|mus_mus|motif|central (ssRNA)
RNA: GGGAGUUCUACAGUCCGACGAUCAACAUUCAGGGCCCCAUCAAAUCUGAGGGAAGCAGUGAUGGAAGACACAAUUUGACCGGUCAACCUGUUUAGGUUAGUGUAGGUUGGGCGCUCAAUGUCGAGGUUUCUACGACAGAUAUCCAACAGAGGAUUGAGCAUCA
B7: 79225659_79232078_1400_3pUTR_ENSMUSG00000020716_ENSMUST00000071325|mouse|control|control (ssRNA)
RNA: GGGAGUUCUACAGUCCGACGAUCUCUUAGGCCACCAAUCCAACGCAGAAUUGGUGAUGAUGCGGUGCAGUGAGUUUACCAACACAUAGUGAAAUGUAGAAGGUGAAUUCUGAGCCAGGCAGAUCUUAAAGUGUUGGUUGUUGUCAACAGAGGAUUGAGCAUCA
B8: chr1:244870462:244870463:+_ENSG00000121644_ENST00000302550|hu_hu|motif|central (ssRNA)
RNA: GGGAGUUCUACAGUCCGACGAUCAUAGCAAACAAUCCAAUCUAAAAGUUUAAAUAAAUGUCAAUAAUUUUAAAACGGACGGUAUUUUAUAUGUAUAUAAAGCUGAAGUCACUGCCUUGGAUAGUGUUACACUGCAUCCAAUAUCAACAGAGGAUUGAGCAUCA
B9: chrX:71549400:71549401:+_ENSMUSG00000019087_ENSMUST00000019231|mus_hu|mus_mus_mus_hu_False|88_98 (ssRNA)
RNA: GGGAGUUCUACAGUCCGACGAUCGCAGUAGGAAGAGCAAACCUUUCCAUCCACUGUCGCUGCAGGGUGGGAAAGCAACAACACGGACACCGUCCCACCCUCAACCCCCCCACUGGCACAGGGUCACACAAUCUGGGUCAAAGACAACAGAGGAUUGAGCAUCA
B10: chr1:163117127:163117128:-_ENSG00000143248_ENST00000313961|hu_mus|hu_hu_hu_mus_False|38_58 (ssRNA)
RNA: GGGAGUUCUACAGUCCGACGAUCUGCUACAAAGGAUGUAACUCAACUCACAGGGCAACUUUUGGAAGCCUGACCAGAUUACUACUUGAUUAGCUCCUGAUAAAACUCAGAGCGCACAAAGCGGGGCAGAGAAUCCUUCUCCAUCAACAGAGGAUUGAGCAUCA
B11: chr1:225611761:225611762:-_ENSG00000143815_ENST00000272163|hu_hu|FALSE|FALSE (ssRNA)
RNA: GGGAGUUCUACAGUCCGACGAUCCCAGGCCAUCGACCUCUUACCACUUCACCAUCGGCAAAUUUCCUACUUGGCAUUUUCUAUAAUUAACCUGCGCCAGGUUCCGGCGGUGACACGGACGGCUCCCGGAGAAUAGUCGCACAGCAACAGAGGAUUGAGCAUCA
B12: chr6:18258251:18258252:-_ENSG00000124795_ENST00000397239|hu_mus|FALSE|FALSE (ssRNA)
RNA: GGGAGUUCUACAGUCCGACGAUCCUUCUUCAACGAGGACACUGUGCCCGGCCUGUUGUAAAGCAGUUUGUGUAGAUUUCUAAGUUCAUCUGGUUUUUUCUUACUCAGAAAGAAAUGUAUCCUUUCAAUUUCACAAAGUUUCUGCAACAGAGGAUUGAGCAUCA
B13: chr12:48362563:48362564:+_ENSG00000134291_ENST00000256686|hu_hu|hu_hu_hu_mus_False|28_58 (ssRNA)
RNA: GGGAGUUCUACAGUCCGACGAUCUCCGUCAAGCCCUUCGAUAGACCCUUGCGGGGGAAACUGUAAUCACUUUGUAUUUCUAAAAAAAAGAAACGCCAAAAACUUUCUUUCUUUCUUGGGUGGGGUGAGGCGGGAGGGGGAGGUCAACAGAGGAUUGAGCAUCA
B14: chr3:148802587:148802588:-_ENSG00000071794_ENST00000310053|hu_mus|hu_hu_hu_mus_False|8_98 (ssRNA)
RNA: GGGAGUUCUACAGUCCGACGAUCUCCAACAACUUGUCCUCUCAAACUUCCAAAUAAAACCAAAUCUUGCUCUUCAUCACUCGUUAGGAAGUCAUCUGGAGGAAUAAUGUCUUGGAAUUCAAAAUGUGGAAAGAAAGUUGAGUACAACAGAGGAUUGAGCAUCA
B15: chr14:57521665:57521666:+_ENSMUSG00000021945_ENSMUST00000022511|mus_hu|FALSE|FALSE (ssRNA)
RNA: GGGAGUUCUACAGUCCGACGAUCAACAACAUCAUCAUCAUCUUCCACUGACGAGUUCUGAAACUUAUUAGAUCUAGACACUAAAGGAUUAGCUGGACCACUAAAUGAGUUUCCUACAUUCGUGAGACUAGUUGCCAUGGCCGUCAACAGAGGAUUGAGCAUCA
B16: 64900861_64905178_1367_3pUTR_ENSG00000113595_ENST00000231524|human|control|control (ssRNA)
RNA: GGGAGUUCUACAGUCCGACGAUCCUACAAUCAUCCUGCUGCAAAGUCUUUUCACAGUGGAGGCAGGCUGCAGAAACCUCUGACAACAAAAUAGUCAUAUCUUCUUGUUGCUGCCUGAGCCAAAUCAAUUUUUCACGAACAUGACAACAGAGGAUUGAGCAUCA
B17: chr20:36033742:36033743:+_ENSG00000197122_ENST00000358208|hu_hu|FALSE|FALSE (ssRNA)
RNA: GGGAGUUCUACAGUCCGACGAUCAUCAGACAAUAUGCAAAGUAUUUACAACCAAUUCUGGAUACCCCCCCACCCCCCGCAAGUCUGGGCCUUGGAAUUUCGGAGCCCCAGGCCCGGCCCAGAGCCAGGGGUCCCCCAGGCCUCCAACAGAGGAUUGAGCAUCA
B18: chr12:493273:493274:-_ENSG00000073614_ENST00000399788|hu_mus|hu_hu_hu_mus_False|48_108 (ssRNA)
RNA: GGGAGUUCUACAGUCCGACGAUCUUUUCUCUCUACCACAGGGAUCUUCAAUGUAGAUCCUUGAAGUUCCCAAAAUUUUGCCAGUUGAUCCAAGAAAUCCAAUCUUACUCUAGUCAUUGCCUCAAGUUCAUUCAGGCGCUGGACCAACAGAGGAUUGAGCAUCA
B19: chr2:35971668:35971669:-_ENSMUSG00000026889_ENSMUST00000028251|mus_mus|FALSE|FALSE (ssRNA)
RNA: GGGAGUUCUACAGUCCGACGAUCAAGAAUUGGUACAAAUCAUAGACAUUGUUUAAAUACAAAUAAAUAGUUCUAGAUUCUAAAGAAACAACUCUAGAUAAUCCUAAGUAUUCUCUAGGUUCCUAUUAAAAAUAGAAGGCUAUUCAACAGAGGAUUGAGCAUCA
B20: chr1:172411362:172411363:-_ENSG00000135845_ENST00000344529|hu_mus|FALSE|FALSE (ssRNA)
RNA: GGGAGUUCUACAGUCCGACGAUCCAUGGCGUAGAUAGUGUCUGUACUGACAGACUCCGUCAGGGUCUUUAGCACAGGUGAAAAACCGUAAGUGAAAGUGAUAAAGACCAGAGUACUCUUCAGGUCGGCCCACCGGGUCCGCCCCAACAGAGGAUUGAGCAUCA
B21: chr17:88387627:88387628:+_ENSMUSG00000005370_ENSMUST00000005503|mus_mus|FALSE|FALSE (ssRNA)
RNA: GGGAGUUCUACAGUCCGACGAUCAAAAUCGUCUCCAAAAAAAGUCUUUGUAAUGCAGGGAUGUCGUGACCCUUUAAACUCUAAGAAGGGAUGUGUGUCUUCUCCUGGUAACACAAUUUCUGGGCGACACAUAGGACCAUCUCCCAACAGAGGAUUGAGCAUCA
B22: chrX:71549400:71549401:+_ENSMUSG00000019087_ENSMUST00000019231|mus_hu|mus_mus_mus_hu_False|18_68 (ssRNA)
RNA: GGGAGUUCUACAGUCCGACGAUCGCAGUAGGAAGAGGGAAGCUCUUCAGUCCAGUGCGCUGCAGGGAGAAACAUGAACAACACGGACACCGUCCCACCCUCAACCCCCCCACUGGCAUGUCACACAACAAUCUGGGUCAAAGACAACAGAGGAUUGAGCAUCA

Some of the results follow.

The target of this experiment is T1, UNK ZnF1-3. Description: nsRBNS (natural sequence RNA bind-n-seq); RBNS binding buffer (assumed for nsRBNS): 25 mM Tris pH 7.5, 150 mM KCl, 3 mM MgCl2, 0.01% Triton X-100, 500 ug/ml BSA, 20 U/ml SUPERase-In, 4 C; UNK is unkempt and MSI1 is Musashi-1; names of the RNAs are library labels; protein concentration not given here; high values mean tight binding.
For B1, the binding signal came out at 2.87 enrichment R.
Next, B2: 1.07 enrichment R.
Take B3: the binding signal came to 1.07 enrichment R.
Next, B4: 0.733 enrichment R.
Next, B5: 0.745 enrichment R; B6: 1.55 enrichment R; B7: 0.783 enrichment R.
Regarding B8, the binding signal was 2.46 enrichment R.
As for B9, the figure is 1.23 enrichment R; as for B10, 1.1 enrichment R.
Next, B11: 1.06 enrichment R.
Next, B12: 0.59 enrichment R.
As to B13, the binding signal amounted to 1.52 enrichment R.
As for B14, the figure is 1.1 enrichment R; as for B15, 0.811 enrichment R; as for B16, 0.983 enrichment R.
Next, B17: 2.04 enrichment R.
As for B18, the figure is 1.02 enrichment R; as for B19, 1.15 enrichment R.
With B20, the binding signal worked out at 0.792 enrichment R.
As for B21, the figure is 0.897 enrichment R; as for B22, 1.62 enrichment R.
